Test results: US20240376214A1, “ANTI-C-MET ANTIBODIES AND ANTIBODY-DRUG CONJUGATES” (BYONDIS B.V., priority 2021, published 2024)

Legend:
[1] = system: LXFL1176 large cell carcinoma xenograft; assay: Dose-response study, patient-derived lung cancer xenograft LXFL1176; format: in vivo, mice; settings: LXFL1176, single injection 0.3, 1, 3 or 10 mg/kg, FIG. 8B
Protocol: Dose-response studies were performed two patient-derived xenograft models: 1) LXFL1176, a large cell carcinoma derived a lymph node metastasis, and 2) HNXF1905, a primary squamous cell carcinoma from the supraorbital area. The tumor explants were grafted in B6-Ces1ctm1.1Loc.CB17 Prkdc^scid mice using the same protocol as described hereinabove. The MET gene is not amplified in either tumor; immunohistochemical staining confirmed high c-Met expression on the cell surface in the LXFL1176 model, and moderate c-Met expression in the HNXF1905 model.
The mice were dosed on the day of randomization or on the following day with a single injection of 0.3, 1, 3 or 10 mg/kg ADC3b. A vehicle and non-binding isotype control ADC were included. […] The efficacy of ADC3b in head and neck cancer PDX model HNXF1905 is shown in FIG. 8A, the efficacy in lung cancer PDX model LXFL1176 in FIG. 8B.

[2] = system: c-Met-negative Jurkat NucLight Red cells; assay: Bystander cytotoxicity, Jurkat NucLight Red co-cultured 1:1 with MKN45; format: cell-based, human; settings: 1 μg/mL, 6 days, FIG. 4
Protocol: Bystander cytotoxicity was determined in c-Met-negative Jurkat NucLight Red cells 1:1 co-cultured with c-Met positive MKN45 cells. 5000 cells/well of each cell type (1:1 ratio) was added in their own culture medium to 96-well plates pre-coated with Poly-L-Omithine (0.1 mg/mL, Sigma). After an overnight incubation at 37° C., 5% CO2, 10 μL of 1 μg/mL ADC3b or non-binding control ADC (rituximab-vc-seco-DUBA) was added. Live cell analysis of the proliferation of co-cultured c-Met negative Jurkat NucLight Red cells was assessed by imaging the plates in the IncuCyte S3 instrument, scanning phase and fluorescence with a 10× objective, 4 images per well, every 6 hours during 6 days.

[3] = system: Jurkat NucLight Red cells; assay: In vitro cytotoxicity (PrestoBlue, CyQUANT), Jurkat NucLight Red; format: cell-based, human; settings: 0 c-Met antigen binding sites per cell
Protocol: (§1) In a separate experiment, in vitro cytotoxicity of ADC3b was determined in human tumor cell lines with varying levels of c-Met expression. Cells in complete growth medium were plated in 384-well plates (45 μL/well) and incubated at 37° C., 5% CO2 at the following cell densities: 650 MKN-45, 600 EBC-1, 250 PC-3, 400 KP-4, 2000 NCI-H441, 2500 Hep-G2, 4000 A2780, 1500 HCC-1954 and 600 Jurkat NucLight Red cells per well. After an overnight incubation 5 μL of ADC3b was added. Serial dilutions of the ADC were made in culture medium. Cell viability was assessed after 6 days using the fluorescence-based PrestoBlue® Cell Viability Reagent (Invitrogen, Thermo Fisher scientific, USA) and fluorescence-based CyQUANT® Cell Proliferation Assay (Invitrogen, Thermo Fisher scientific, USA) according to the manufacturer's instructions. Percentage survival was calculated by dividing the measured fluorescence for each ADC concentration with the average mean of untreated cells (only growth medium) multiplied with 100.

[4] = system: human tumor cell lines with high, moderate and low c-Met expression; assay: In vitro cytotoxicity (PrestoBlue, CyQUANT), tumor cell lines with varying c-Met expression; format: cell-based; settings: 6 days, PrestoBlue and CyQUANT read-outs, FIG. 3
Protocol: as §1

human c-Met = biological target: T1, human c-Met (Homo sapiens, UniProt P08581); assay: Cellular binding (flow cytometry), MKN45 cells; settings: c-Met-expressing MKN45 cells, FIG. 2
T1 construct: human c-Met-positive tumor cell lines MKN45, NCI-H596 and PC-3; endogenous in cells; host or cells: MKN45; PC-3
T1 sequence (P08581 25-1390): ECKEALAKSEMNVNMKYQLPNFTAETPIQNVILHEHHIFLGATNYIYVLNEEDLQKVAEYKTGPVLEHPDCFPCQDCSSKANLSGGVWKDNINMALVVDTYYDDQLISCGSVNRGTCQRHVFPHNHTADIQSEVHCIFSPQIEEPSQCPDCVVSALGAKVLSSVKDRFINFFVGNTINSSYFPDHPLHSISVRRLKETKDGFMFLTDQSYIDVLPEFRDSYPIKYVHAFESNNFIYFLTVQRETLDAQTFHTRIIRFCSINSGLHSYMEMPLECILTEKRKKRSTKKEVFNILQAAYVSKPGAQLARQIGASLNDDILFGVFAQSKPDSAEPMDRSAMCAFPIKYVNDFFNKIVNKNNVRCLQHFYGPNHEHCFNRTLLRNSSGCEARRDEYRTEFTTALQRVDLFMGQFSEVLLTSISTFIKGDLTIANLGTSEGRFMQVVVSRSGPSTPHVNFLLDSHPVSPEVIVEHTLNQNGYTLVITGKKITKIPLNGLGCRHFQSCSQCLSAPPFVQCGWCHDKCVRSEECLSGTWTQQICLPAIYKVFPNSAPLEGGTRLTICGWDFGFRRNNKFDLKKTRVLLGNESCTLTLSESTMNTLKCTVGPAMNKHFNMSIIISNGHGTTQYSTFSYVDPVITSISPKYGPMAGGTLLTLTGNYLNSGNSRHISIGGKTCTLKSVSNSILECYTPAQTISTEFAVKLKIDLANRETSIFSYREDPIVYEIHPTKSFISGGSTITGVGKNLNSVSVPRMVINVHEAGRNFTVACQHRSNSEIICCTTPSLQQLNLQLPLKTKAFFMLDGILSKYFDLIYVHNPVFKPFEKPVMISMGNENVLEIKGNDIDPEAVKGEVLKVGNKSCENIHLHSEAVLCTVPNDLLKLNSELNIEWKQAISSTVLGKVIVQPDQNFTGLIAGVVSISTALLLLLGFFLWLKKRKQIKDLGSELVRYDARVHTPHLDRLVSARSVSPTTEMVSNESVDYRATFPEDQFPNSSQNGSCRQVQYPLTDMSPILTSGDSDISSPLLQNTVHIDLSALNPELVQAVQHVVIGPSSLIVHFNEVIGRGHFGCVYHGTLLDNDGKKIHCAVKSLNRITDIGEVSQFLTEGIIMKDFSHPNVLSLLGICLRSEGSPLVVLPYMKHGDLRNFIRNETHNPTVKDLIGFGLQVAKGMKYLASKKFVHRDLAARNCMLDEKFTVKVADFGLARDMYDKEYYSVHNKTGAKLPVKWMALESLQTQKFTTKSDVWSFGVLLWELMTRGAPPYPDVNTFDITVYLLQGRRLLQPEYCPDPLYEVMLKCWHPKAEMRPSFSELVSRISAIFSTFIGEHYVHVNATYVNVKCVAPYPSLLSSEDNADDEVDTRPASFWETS
Protocol: Cellular binding of the 14 wild-type chimeric and the 14 HC-41C chimeric anti-c-Met antibodies was studied in human c-Met-positive tumor cell lines MKN45, NCI-H596 and PC-3, rhesus c-Met-positive tumor cell line 4 MBr-5, and human c-Met-negative tumor cell line MDA-MB-175-VII. Cells were used around 90% of confluence at the time of an assay, detached with Trypsin-Versene (EDTA) (Lonza) for 5-10 minutes, washed and adjusted to a concentration of 1×10^6 cells/mL in ice-cold FACS buffer (PBS 1×, 0.1% v/w BSA, 0.02% v/v sodium azide (NaN3)). Staining was performed in 96-well round-bottomed microtiter plates using ice-cold reagents/solutions at 4° C. to prevent the modulation and internalization of surface antigens. 100,000 cells/well were added to 96-well plates (100 μL/well) and centrifuged at 300×g for 3 minutes. […] For analysis of the data, the Median Fluorescence Intensity (MFI) values were obtained.
Cellular binding of the in total 75 humanized anti-c-Met antibodies (originating from the three selected chimeric antibodies) was studied in human c-Met-positive tumor cell lines MKN45, NCI-H596 and PC-3, rhesus c-Met-positive tumor cell line 4 MBr-5, and human c-Met-negative tumor cell line MDA-MB-175-VII. […] For analysis of the data, the Median Fluorescence Intensity (MFI) values were obtained.

B1: ADC3b: mAb3b site-specifically conjugated (HC 41C) to vc-seco-DUBA, DAR 1.9 (conjugate)
heavy: QVQLVQSGAEVKKPGASVKVSCKASGYTFTDYYLNWVRQACGQGLEWMGLIFPGNDKTEYSEKFKGRVTLTTDTSISTAYMELSSLTSDDTALYYCSGGDYGGFVYWGQGTLVTVSS[sequence of human IgG1 constant region not given]
light: DIQMTQSPSSLSASVGDRVTISCGASENIYGALNWYQQQPGKAPKVLIFGATNLADGVPSRFSGSGSGTDFTLTISSLQPEDFATYYCQNVLSSPLTFGQGTKLEIKRTVAAPSVFIFPPSDEQLKSGTASVVCLLNNFYPREAKVQWKVDNALQSGNSQESVTEQDSKDSTYSLSSTLTLSKADYEKHKVYACEVTHQGLSSPVTKSFNRGEC
- anti-tumor activity [1]: dose-dependent anti-tumor activity
- bystander killing effect [2]: capable of inducing a bystander killing effect
- cytotoxicity [3]: No cytotoxicity was observed
- cytotoxicity [4]: induce cytotoxicity
- binding affinity of ADC versus unconjugated antibody (human c-Met): equal binding affinities
